“And” between values parts separate entries of the source, which are not always exact repeats. Identical values can stand only once. About 25,000 (6.9%) of roughly 360,000 compounds were called active. This list was built around the results that the source calls inconclusive (neither active nor inactive); the mix of calls is not that of the screen. Calls come from the whole dose curve; as a rule, active = well fitted inhibition curve with a large enough effect; inconclusive = small, poorly fitted or top-dose-only effect; inactive = flat fitted curve, though single readings scatter. Where the call is inconclusive, the potency comes from a doubtful curve fit.
biological target: Luciferin 4-monooxygenase (Photinus pyralis) (UniProt P08659); assay: qHTS profiling assay for firefly luciferase inhibitor/activator using purifed enzyme and Km concentrations of substrates (counterscreen for miR-21 project); conditions: purified FLuc, luminescence inhibition; series mostly up to 57.5 µM; note: nearly all actives have a fitted effect of over 55% in size
Sequence of UniProt P08659 (P08659 whole entry, looked up): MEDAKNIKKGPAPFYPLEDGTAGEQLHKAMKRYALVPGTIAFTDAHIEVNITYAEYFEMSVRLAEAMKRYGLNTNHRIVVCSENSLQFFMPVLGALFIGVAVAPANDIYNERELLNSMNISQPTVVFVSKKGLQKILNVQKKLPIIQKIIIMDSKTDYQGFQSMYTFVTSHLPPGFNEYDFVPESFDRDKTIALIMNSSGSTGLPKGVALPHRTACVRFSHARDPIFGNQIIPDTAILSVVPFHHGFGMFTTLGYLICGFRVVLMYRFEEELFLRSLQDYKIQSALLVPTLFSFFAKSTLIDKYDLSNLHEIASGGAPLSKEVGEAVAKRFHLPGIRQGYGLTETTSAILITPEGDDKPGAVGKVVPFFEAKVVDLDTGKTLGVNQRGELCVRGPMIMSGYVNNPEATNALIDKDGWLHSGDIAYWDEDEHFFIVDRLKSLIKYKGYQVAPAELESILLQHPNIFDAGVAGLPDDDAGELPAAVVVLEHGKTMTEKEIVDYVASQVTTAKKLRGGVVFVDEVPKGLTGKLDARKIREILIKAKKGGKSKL
In short: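 Purified P. pyralis luciferase, 10 nM final, with Km-level 10 uM D-luciferin and 10 uM ATP in 50 mM Tris acetate pH 7.5, 10 mM Mg acetate, 0.01% Tween-20, 0.05% BSA; 6-point qHTS titration about 60 µM downward; luminescence read.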
Potency is the fitted concentration of half-maximal effect; tags give direction and shape of the fitted curve.

Q: With `CCOc1ccccc1/C=N/Nc1ccccc1[N+](=O)[O-]` as the compound, how does the Potency read?
A: The Potency was inconclusive: 5.36 µM [inhibitor, partial curve, poor fit].

Q: With `COc1ccc(N=C2NN=C(c3ccc4c(c3)OCCO4)CS2)cc1` as the compound, how does the Potency read?
A: Its Potency is inconclusive: 8.49 µM [inhibitor, partial curve, poor fit].

Q: With `CCOc1ccc(-c2nc(CCl)cs2)cc1` as the compound, how does the Potency read?
A: The Potency was active: 3.01 µM.

Q: How did the Potency turn out when `O=c1[nH]cnc2nn(-c3ccccc3)nc12` was run?
A: The Potency was active: 21.3 µM.

Q: How did the Potency turn out when `COc1ccc(-c2nc(SCC(=O)Nc3nccs3)c(-c3ccc(Cl)cc3)[nH]2)cc1` was run?
A: The Potency was inconclusive: 26.9 µM [inhibitor, partial curve, poor fit].

Q: For `CCCOc1ccccc1/C=C1/C(=O)ON=C1C`, which Potency is on record?
A: Its Potency is inconclusive: 30.1 µM [inhibitor, partial curve, poor fit].

Q: `Cc1ccc(C)c(NC(=S)c2ccc3ccccc3n2)c1` was tested. Which Potency did it give?
A: Its Potency is active: 5.36 µM.

Q: Which Potency does the source give for `CNC(=O)c1ccc(Nc2nnc(-c3ccc(C)c(S(=O)(=O)N4CCOCC4)c3)c3ccccc23)cc1` here?
A: The Potency was inconclusive: 37.9 µM [inhibitor, partial curve, poor fit].

Q: For `CCOc1nc(NC(=O)NS(=O)(=O)Oc2ccccc2Cl)nc(-c2ccccc2)n1`, which Potency is on record?
A: Its Potency is inconclusive: 26.9 µM [inhibitor, single point] and inconclusive: 37.9 µM [inhibitor, partial curve, poor fit].

Q: For `O=C(Nc1ccc(F)cc1F)c1cc(Cl)sc1Cl`, which Potency is on record?
A: Its Potency is inconclusive: 23.9 µM [inhibitor, single point].

Q: Which Potency does the source give for `COc1ccc(OC)c(-n2c(-c3cccc(C)c3)n[nH]c2=S)c1` here?
A: Its Potency is inconclusive: 21.3 µM [inhibitor, single point].

Q: `CC1(C)C2CC=C(/C=N/NC(=O)c3ccccc3O)C1C2` (stereo not given) was tested. Which Potency did it give?
A: Its Potency is active: 7.57 µM.

Q: For `COc1ccc(OC)c(CNC(=O)CN2C(=O)CCn3nc(-c4cn(C)c5ccccc45)cc32)c1`, which Potency is on record?
A: The Potency was “inactive”.

Q: Which Potency does the source give for `O=C(Nc1ccon1)c1cc2c(s1)CCCCCC2` here?
A: Its Potency is active: 6.01 µM.

Q: How did the Potency turn out when `N#Cc1ccc(NS(=O)(=O)c2ccc(-c3cnc(C4CC4)o3)cc2)cc1` was run?
A: The Potency was inconclusive: 16.9 µM [inhibitor, partial curve].

Q: `CCn1cc(/C=N/NC(=O)c2ccc3c(c2)OCO3)cn1` was tested. Which Potency did it give?
A: Its Potency is inconclusive: 37.9 µM [inhibitor, partial curve, poor fit].

Q: `O=C(Nc1nnc(C2CC2)s1)c1cc(Cl)sc1Cl` was tested. Which Potency did it give?
A: The Potency was inconclusive: 33.8 µM [inhibitor, single point].

Q: With `Cc1nc2cc(C(=O)O)ccc2n1-c1ccc(C(C)C)cc1` as the compound, how does the Potency read?
A: Its Potency is inconclusive: 12 µM [inhibitor, partial curve].

Q: `Cc1ccc(C(C(=O)Nc2ccc3c(c2)OCO3)N(C)C(=O)/C=C\c2ccc3c(c2)OCO3)cc1` (stereo not given) was tested. Which Potency did it give?
A: Its Potency is “inactive”.

Q: How did the Potency turn out when `O=C(OCC(=O)N1CCN(C(=O)c2ccco2)CC1)c1cc(-c2ccco2)nc2ccccc12` was run?
A: Its Potency is active: 15.1 µM.

Q: How did the Potency turn out when `CCC(=O)n1nc(-c2ccccc2)nc1SCC(=O)Nc1ccc(C)cc1` was run?
A: The Potency was inconclusive: 23.9 µM [inhibitor, partial curve, poor fit].

Q: How did the Potency turn out when `Cn1c(-n2c(-c3ccco3)nc3ccccc3c2=O)nc2ccccc21` was run?
A: The Potency was active: 21.3 µM.

Q: How did the Potency turn out when `CC(C)(C)SCCNS(=O)(=O)c1ccc(C#N)cc1` was run?
A: The Potency was “inactive”.

Q: For `O=C(CSc1n[nH]c(-c2ccccn2)n1)Nc1cccc(Cl)c1`, which Potency is on record?
A: Its Potency is inconclusive: 30.1 µM [inhibitor, partial curve, poor fit].

Q: `O=C(O)CC(Cc1ccccc1)C(=O)NCC12CC3CC(CC(C3)C1)C2` (stereo not given) was tested. Which Potency did it give?
A: The Potency was inconclusive: 26.9 µM [inhibitor, partial curve, poor fit].

Q: With `COc1ccc(NS(=O)(=O)c2cc(NC(=O)CNC(=O)c3ccc(C)s3)ccc2Cl)cc1` as the compound, how does the Potency read?
A: Its Potency is inconclusive: 30.1 µM [inhibitor, single point].

Q: Which Potency does the source give for `O=C(NCCN1CCN(c2ccccc2)CC1)c1cccc(Cl)c1` here?
A: The Potency was “inactive”.

Q: Which Potency does the source give for `Cc1nc2sc(C(=O)Nc3ccccc3)c(N)c2c(C)c1[N+](=O)[O-]` here?
A: The Potency was inconclusive: 0.536 µM [inhibitor, full curve].

Q: Which Potency does the source give for `O=S(=O)(c1cccc(-c2cn3cc(Cl)ccc3n2)c1)N1CCOCC1` here?
A: The Potency was inconclusive: 23.9 µM [inhibitor, partial curve].

Q: How did the Potency turn out when `O=C(NCc1ccncc1)/C(=C/c1cccc([N+](=O)[O-])c1)NC(=O)c1ccccc1` was run?
A: Its Potency is “inactive”.

Q: `O=C(NCC1CCCO1)c1csc(Nc2cccc3ccccc23)n1` (stereo not given) was tested. Which Potency did it give?
A: Its Potency is active: 21.3 µM.

Q: How did the Potency turn out when `COc1cc(OC)cc(C(=O)N/N=C\c2ccoc2)c1` was run?
A: The Potency was “inactive”.

Q: With `O=C(Nc1cccc(Cl)c1)c1ccc(Cn2cc(Cl)cn2)cc1` as the compound, how does the Potency read?
A: Its Potency is inconclusive: 26.9 µM [inhibitor, single point].

Q: With `O=C(Nc1cc2c3c(c1)CC(=O)N3CCC2)c1c(F)cccc1F` as the compound, how does the Potency read?
A: Its Potency is “inactive”.

Q: Which Potency does the source give for `Cc1ccsc1/C=N/NC(=O)c1nnn(-c2nonc2N)c1CSc1ccccc1` here?
A: The Potency was “inactive”.

Q: How did the Potency turn out when `Cc1ccc(NC(=O)CN2C=NS(=O)(=O)c3ccccc32)c(C)c1` was run?
A: The Potency was “inactive”.

Q: Which Potency does the source give for `CCOC(=O)N1CCC(=NNc2nc3ccccc3s2)CC1` here?
A: The Potency was active: 3.38 µM.

Q: For `COc1ccc(NC(=O)Nc2nnc(N3CCCCCC3)s2)c(OC)c1`, which Potency is on record?
A: Its Potency is “inactive”.

Q: With `Cc1ccc(CNC(=O)c2ccc(F)c(S(=O)(=O)N3CCOCC3)c2)cc1` as the compound, how does the Potency read?
A: Its Potency is “inactive”.

Q: Which Potency does the source give for `Cc1c(C(=O)Nc2ccccc2)csc1-c1ccccc1` here?
A: Its Potency is active: 0.213 µM.

Q: For `CCN1C(=O)S/C(=C/c2c(OCc3ccc(C(=O)O)cc3)ccc3ccccc23)C1=O`, which Potency is on record?
A: Its Potency is inconclusive: 23.9 µM [inhibitor, single point].

Q: Which Potency does the source give for `CCOC(=O)c1nn(-c2ccc(F)cc2)cc1O` here?
A: The Potency was inconclusive: 19 µM [inhibitor, partial curve, poor fit].

Q: Which Potency does the source give for `CCOCCCNC(=O)c1cc(Nc2ccc(OC)cc2OC)nc2ccccc12` here?
A: Its Potency is inconclusive: 21.3 µM [inhibitor, partial curve].

Q: With `CN(C)CCN(C(=O)c1ccc2c(c1)CCCC2)c1nc2c(F)cccc2s1` as the compound, how does the Potency read?
A: Its Potency is active: 10.7 µM.

Q: For `CCNC(=O)/C(=C\C=C\c1ccccc1)NC(=O)c1ccc(Br)o1`, which Potency is on record?
A: The Potency was inconclusive: 37.9 µM [inhibitor, single point].

Q: `O=C(CCc1ccccc1)Nc1ccc2c(c1)OCO2` was tested. Which Potency did it give?
A: Its Potency is inconclusive: 21.3 µM [inhibitor, single point].

Q: Which Potency does the source give for `Cc1cccc(NC(=O)c2ccc(NCC3CCCO3)c([N+](=O)[O-])c2)n1` (stereo not given) here?
A: The Potency was inconclusive: 9.53 µM [inhibitor, partial curve, poor fit].

Q: Which Potency does the source give for `O=C1OC2(CCCCC2)OC(=O)C1=CNc1ccc2c(c1)OCO2` here?
A: The Potency was inconclusive: 26.9 µM [inhibitor, partial curve].

Q: With `CN(C)c1ccc(CNC(=O)C2CCN(S(=O)(=O)c3cn(C)cn3)CC2)cc1` as the compound, how does the Potency read?
A: The Potency was “inactive”.

Q: `Clc1ccc(-c2nnc(-c3ccccc3)nc2N2CCSCC2)cc1` was tested. Which Potency did it give?
A: Its Potency is inconclusive: 37.9 µM [inhibitor, partial curve, poor fit].

Q: With `Cc1c(C(=O)Nc2ccncc2)oc2ccccc12` as the compound, how does the Potency read?
A: The Potency was active: 19 µM.

Q: `Cc1cccc(/C=C2\Sc3ccc(C(=O)N4CCOCC4)cc3N(C)C2=O)c1` was tested. Which Potency did it give?
A: Its Potency is inconclusive: 30.1 µM [inhibitor, partial curve, poor fit].

Q: For `COc1ccccc1CN(Cc1nc2ccccc2c(=O)[nH]1)C(=O)Nc1cccc(C)c1`, which Potency is on record?
A: The Potency was inconclusive: 26.9 µM [inhibitor, single point].

Q: With `CN1C(N)=NC(=O)/C1=C/c1ccccc1F` as the compound, how does the Potency read?
A: The Potency was “inactive”.

Q: `CCC(=O)Nc1ccc2ccccc2c1` was tested. Which Potency did it give?
A: The Potency was inconclusive: 33.8 µM [inhibitor, single point].

Q: Which Potency does the source give for `COc1ccc(NC(=O)c2sc3nc(-c4cc5cccc(OC)c5oc4=O)[nH]c(=O)c3c2C)cc1` here?
A: Its Potency is inconclusive: 23.9 µM [inhibitor, partial curve, poor fit].

Q: With `CCCn1c(C)cc(/C=C(\C#N)C(=O)OCC(=O)Nc2cc(OC)c(OC)c(OC)c2)c1C` as the compound, how does the Potency read?
A: Its Potency is active: 13.5 µM.

Q: `COc1cccc2[nH]c3c(N4CCC(C)CC4)ncnc3c12` was tested. Which Potency did it give?
A: The Potency was inconclusive: 10.7 µM [inhibitor, partial curve].

Q: `CC1(C)C2CCC1(C)C(NC(=O)/C=C/c1ccccc1)C2` (stereo not given) was tested. Which Potency did it give?
A: Its Potency is inconclusive: 37.9 µM [inhibitor, partial curve, poor fit].

Q: How did the Potency turn out when `COCCN(Cc1cc2cc3c(cc2nc1Cl)OCO3)C(C)=O` was run?
A: The Potency was inconclusive: 16.9 µM [inhibitor, partial curve].

Q: `COc1ccc(CNC(=O)C(=O)c2cn(CC(=O)N3CCCC3)c3ccccc23)cc1` was tested. Which Potency did it give?
A: Its Potency is inconclusive: 37.9 µM [inhibitor, single point].

Q: How did the Potency turn out when `O=C(CCNC(=O)c1ccccc1Cl)Nc1nc(-c2ccc3ccccc3c2)cs1` was run?
A: Its Potency is inconclusive: 16.9 µM [inhibitor, partial curve, poor fit].

Q: With `Cc1ccsc1/C=N/Nc1nc2ccccc2[nH]1` as the compound, how does the Potency read?
A: The Potency was active: 3.38 µM.

Q: Which Potency does the source give for `CN(/N=C/c1ccc(-c2ccc([N+](=O)[O-])cc2)o1)c1ccccc1` here?
A: The Potency was inconclusive: 12 µM [inhibitor, partial curve, poor fit].

Q: `CCCCOc1ccc(CN2CCC(O)CC2)cc1` was tested. Which Potency did it give?
A: Its Potency is inconclusive: 26.9 µM [inhibitor, partial curve].

Q: `O=C(Nc1cccc([N+](=O)[O-])c1)c1ccc(CSc2ccccc2)cc1` was tested. Which Potency did it give?
A: Its Potency is inconclusive: 15.1 µM [inhibitor, partial curve].

Q: Which Potency does the source give for `COCCn1ccc2c(OCC(=O)NCc3ccc(F)cc3)cccc2c1=O` here?
A: Its Potency is “inactive”.

Q: How did the Potency turn out when `Cc1ccc(/C=C2/SC(=S)N(CCCC(=O)Nc3cc([N+](=O)[O-])ccc3O)C2=O)cc1` was run?
A: The Potency was inconclusive: 3.01 µM [inhibitor, partial curve, poor fit].

Q: For `CCOC(=O)N1CCN(C(=O)C2CCCN(c3nc4ccc(OCC)cc4s3)C2)CC1` (stereo not given), which Potency is on record?
A: Its Potency is active: 12 µM.

Q: Which Potency does the source give for `Cc1ccc(NC(=O)Nc2nnc(SCC(=O)N3CCC(C)CC3)s2)cc1` here?
A: The Potency was active: 19 µM.
